Reference: publication PMC6919601, “Identification of Plasmodium dipeptidyl aminopeptidase allosteric inhibitors by high throughput screening” (PLoS ONE, 2019)
The whole screen tested about 110,000 compounds, of which about 230 (0.21%) showed an effect of 50% or more. The list shows a part of the results.

target: DPAP1 (Plasmodium falciparum, UniProt Q8IIJ9); experiment: primary screen, percent inhibition; read by cleavage of a fluorogenic dipeptide substrate; higher = more effect of the substance; design: species or system P. falciparum D10 trophozoite lysates; single well
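Also: 30 min substrate incubation versus DMSO and 10 µM JCP410 controls.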

DPAP1, sequence (Q8IIJ9 whole entry, looked up): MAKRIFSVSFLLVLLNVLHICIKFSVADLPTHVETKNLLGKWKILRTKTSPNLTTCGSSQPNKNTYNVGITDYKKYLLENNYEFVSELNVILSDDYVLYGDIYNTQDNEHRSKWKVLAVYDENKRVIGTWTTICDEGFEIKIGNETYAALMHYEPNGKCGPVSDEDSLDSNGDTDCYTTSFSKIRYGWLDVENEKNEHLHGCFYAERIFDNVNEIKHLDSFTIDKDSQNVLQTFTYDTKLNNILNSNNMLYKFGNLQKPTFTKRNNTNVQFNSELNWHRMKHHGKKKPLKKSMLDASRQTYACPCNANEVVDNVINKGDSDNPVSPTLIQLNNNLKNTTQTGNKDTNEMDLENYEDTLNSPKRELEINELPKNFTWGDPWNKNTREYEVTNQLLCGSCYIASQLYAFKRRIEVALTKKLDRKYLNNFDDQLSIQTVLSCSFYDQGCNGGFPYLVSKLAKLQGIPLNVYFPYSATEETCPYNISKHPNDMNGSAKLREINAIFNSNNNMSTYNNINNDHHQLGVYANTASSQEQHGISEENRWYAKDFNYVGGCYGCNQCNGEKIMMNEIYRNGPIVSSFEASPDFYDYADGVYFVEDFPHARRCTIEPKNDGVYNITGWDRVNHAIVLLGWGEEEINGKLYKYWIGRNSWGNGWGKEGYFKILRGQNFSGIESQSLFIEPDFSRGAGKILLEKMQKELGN

Row | SMILES | % Inhibition @ 10 uM [%]
1 | CC(=O)c1cccc(NC(=O)CCCOc2ccc(Cl)cc2C)c1 | -0.641
2 | Cn1c(=O)c2c(nc(N3CCOCC3)n2CC(=O)c2ccccc2)n(C)c1=O | 2.44
3 | COc1cccc(-c2nc(CS(=O)(=O)CC(=O)NC3CCCCCC3)c(C)o2)c1 | -0.138
4 | CC1=C(C(=O)OCC(F)(F)C(F)(F)F)C(c2ccc3c(c2)OCO3)NC(=O)N1 (stereo not drawn) | -4.77
5 | COc1ccccc1N1CCN(C(=O)Nc2cccc3ccccc23)CC1 | 0.35
6 | CCc1cccc2c(O)c(C(=O)O)cnc12 | -3.2
7 | CCC(C)NC(=O)NCc1noc2ccc(C)cc12 (stereo not drawn) | -10
8 | O=C(CCCN1C(=O)c2ccccc2C1=O)NC1CCCCC1 | 1.7
9 | COc1cc(OC)c(CN2CCCC3CCCCC32)cc1Br (stereo not drawn) | -2.95
10 | Cc1n[nH]c(C)c1S(=O)(=O)N1CCc2ccccc2C1 | -2.17
11 | Cc1nn(-c2ccccc2)c(O)c1C(=O)c1ccc(Cl)cc1 | 3.61
12 | CC/N=c1\c(NC(=O)c2cc(OC)cc(OC)c2)c(O)oc2ccccc12 | 2.94
13 | CCc1ccc2ncc(S(=O)(=O)c3ccc(Cl)cc3)c(N3CCN(C)CC3)c2c1 | -11.7
14 | CCN1CCN(Cc2cccs2)CC1 | 1.28
15 | CCN1CCN(c2c(S(=O)(=O)c3ccc(Cl)cc3)cnc3cc(OC)c(OC)cc23)CC1 | -8.93
16 | Cc1ccc(C(C#N)NC(=O)[C@H](CC(C)C)NC(=O)c2ccccc2)o1 (stereo partly drawn) | -6.46
17 | O=C(CCC(=O)n1ncc2ccc(Cl)cc21)N1CCCCCC1 | 2.25
18 | COc1cc2oc3ccccc3c2cc1N(CC(=O)N(C)C)S(=O)(=O)c1ccc(C)cc1 | 3.57
19 | O=C(CC1(O)C(=O)N(CN2CCOCC2)c2ccccc21)c1ccccc1 (stereo not drawn) | 3.65
20 | Cc1ccc(NC(=O)c2cc3cc(Br)ccc3oc2=O)cc1 | 4.6
21 | CC(=O)Nc1ccc2c(c1)C(=O)N(c1ccc(C(=O)O)cc1)C2=O | 1.9
22 | CS(=O)(=O)N(CC(=O)NCc1ccccc1Cl)c1ccc(F)cc1 | -0.564
23 | CC(C)Cc1ccc2c(N)c(C(=O)c3ccccc3)sc2n1 | 0.219
24 | CCC(=O)NCCc1nc2ccccc2n1Cc1ccccc1 | -4.49
25 | O=C(CSc1nc2c(c(=O)n1Cc1ccccc1)SCC2)NCCc1ccccc1 | -2.26

Row | SMILES | % Inhibition @ 10 uM [%]
26 | O=[N+]([O-])c1ccc(/C=C/c2ccc3ccccc3n2)s1 | 10.8
27 | O=C(Nc1nccs1)c1cc2c(Cl)nc3ccccc3c2s1 | 0.232
28 | Cc1cccc(NC(=O)CN2C(=O)S/C(=C/c3cccc(F)c3)C2=O)c1 | -1.79
29 | Cn1nc(C(F)(F)F)cc1C(=O)Nc1ccc(S(=O)(=O)NC23CC4CC(CC(C4)C2)C3)cc1 | 2.69
30 | OCCNc1ncnc2sc3c(c12)CCCC3 | -2.62
31 | Cc1oc2c(c1C(=O)NCCC1=CCCCC1)C(=O)c1ccccc1C2=O | -5.41
32 | Cc1ccc(S(=O)(=O)NCCCCCc2nc3ccccc3[nH]2)cc1 | -3.48
33 | Cc1c(O)ccc(-c2[nH]ncc2-c2nc3ccccc3s2)c1O | -10.8
34 | CN(CCc1ccccn1)Cc1ccc2c(c1)OCO2 | 3.73
35 | CCN(CC)/C(=N\OC(=O)c1ccc(C)cc1)c1nonc1N | -1.84
36 | Cc1ccccc1CCNCc1c(C(=O)O)n(C)c2ccccc12 | -1.6
37 | O=C(NCCN1CCOCC1)c1ccc2c(c1)ncn2C1CCCC1 | 2.05
38 | O=C(NCc1cccnc1)c1ccc(CSc2nc3ccncc3n2Cc2cccc(F)c2)cc1 | 2.65
39 | Cc1nnc2c3ccccc3nc(N3CCN(C(=O)c4ccco4)CC3)n12 | 3.5
40 | Cc1nc2ccc(S(=O)(=O)NCC(=O)N3CCCC(C)C3)cc2s1 (stereo not drawn) | 2.57
41 | CCN(CC)CCCCN1c2ccccc2Sc2ccccc21 | -4.43
42 | COc1ccc(-c2cn3c(C)c(C(=O)Nc4cccc(C)n4)sc3n2)cc1 | -7.53
43 | O=C(Nc1cccnc1Cl)C1CCN(c2nc3ccccc3n2Cc2cccc(F)c2)CC1 | 0.0882
44 | Fc1ccc(CN2CCCCC2c2cccnc2)cc1F (stereo not drawn) | -1.5
45 | COc1ccc(C(=O)NCc2nnc(SCC(=O)Nc3nnc(C)s3)o2)cc1 | 84
46 | CCn1c(C(=O)O)c(CNCCC(C)C)c2ccccc21 | 5.09
47 | CNS(=O)(=O)c1ccc(N/C=C2/C(=O)NC(=O)N(c3ccccc3)C2=O)cc1 | 0.751
48 | C=C(C)[C@@H]1CC=C(CNc2ccc3c(c2)OCO3)CC1 | 19.1
49 | CSc1nn(-c2cc(Cl)nc(-c3ccccc3)n2)c(N)c1C#N | -0.994
50 | O=C(NCCCc1ccccc1)c1ccc(CS(=O)c2cccc(Cl)c2)o1 (stereo not drawn) | 2.03

Row | SMILES | % Inhibition @ 10 uM [%]
51 | NS(=O)(=O)c1ccc(CCNc2ncnc3c2c(-c2ccccc2)cn3-c2ccccc2)cc1 | 2.72
52 | CC(C)(C)C(/C=C/c1ccc(Cl)cc1Cl)NC1=NC(=S)N(c2cccc(C(F)(F)F)c2)C1(C)C (stereo not drawn) | -1.42
53 | O=S(=O)(c1ccc(F)cc1)N1CCSC1c1ccc2c3c(cccc13)CC2 (stereo not drawn) | -7.18
54 | CC1(C)Cc2nc(NCCO)c(C#N)cc2CO1 | 2.67
55 | O=S(=O)(Cc1ccccc1)N1CCN(c2cccc(Cl)c2)CC1 | 3.82
56 | CC(C)OCCCNC(=O)c1ccc(CSCc2cccc(Cl)c2)o1 | -6.4
57 | COc1cc(C2C(=O)N(C3CCCCC3)CC(=O)N2Cc2ccc(F)cc2)ccc1OC(C)C (stereo not drawn) | 4.47
58 | Cc1ccccc1OCC(=O)N(Cc1ccccc1F)C1CCS(=O)(=O)C1 (stereo not drawn) | -3.12
59 | COc1ccc(CCNC(=O)Cn2nnc3sc4c(c3c2=O)CCC(C)C4)cc1OC (stereo not drawn) | 0.561
60 | CCSc1ncc(Cl)c(C(=O)N(Cc2ccccc2)c2ccccn2)n1 | 2.19
61 | COc1cccc(/C=C/C2=NN(c3cccc(F)c3)C(c3cccc(OC)c3OC)C2)c1OC (stereo not drawn) | -3.65
62 | COc1ccc(O)c(C2CC(c3c(O)cc(C)oc3=O)=NCCS2)c1 (stereo not drawn) | -1.8
63 | COCCNc1nc2ccc(C(=O)c3ccccc3)cc2n2cnnc12 | 4.4
64 | Cc1sc(N)c(C(=O)NCc2cccnc2)c1-c1ccccc1 | 2.4
65 | CCCCc1nc(S(=O)(=O)c2ccccc2)c(N2CCOCC2)o1 | -4.03
66 | COc1ccc(OC)c(CC2(NC(=O)c3ccccc3Cl)N=C3C(C)=CC=CN3C2=O)c1 (stereo not drawn) | -4.15
67 | N=C1S/C(=C\c2ccco2)C(=O)N1c1ccc2c(c1)OCO2 | -5.91
68 | O=C1O[C@@H]2C[C@H]3C[C@@H]2[C@@H]1[C@H]3C(=O)N1CCC(C(O)(c2ccccc2)c2ccccc2)CC1 | 0.347
69 | CCCCCn1c(N2CCCC2)nc2c1c(=O)n(C)c(=O)n2C | 0.425
70 | CC1=C(C(=O)Nc2cccc(C)n2)C(c2cccc(Cl)c2)C2=C(O)CCCC2=N1 (stereo not drawn) | -2.46
71 | N#Cc1c(S)nc2c(c1-c1ccncc1)CCCC2 | 30.8
72 | CCCNC(=O)C(Cc1ccccc1)NS(=O)(=O)c1cccc2nsnc12 (stereo not drawn) | 2
73 | CN1CCc2c(sc3c2C(=O)NC(c2cc(Br)ccc2O)N3)C1 (stereo not drawn) | 1.31
74 | COc1ccc(/C=N/n2c(C)nnc2C)c(OC)c1OC | 4.67
75 | O=C(NCCc1nc2ccccc2n1CCC1CCCCC1)c1ccco1 | -4.82

Row | SMILES | % Inhibition @ 10 uM [%]
76 | COc1ccc(-n2nnnc2C2CCN(S(=O)(=O)c3ccc(S(C)(=O)=O)cc3)CC2)cc1 | 3.27
77 | N=c1c2c(n(Cc3ccc(Cl)cc3)c3c1CCC3)CCC2 | 5.59
78 | O=C(C1CCCN(S(=O)(=O)N2CCC3(CC2)OCCO3)C1)N1CCN(C2CCCCC2)CC1 (stereo not drawn) | 1.17
79 | O=C(/C=C/c1cn(CC(O)CN2CCOCC2)c2ccccc12)c1cccs1 (stereo not drawn) | -5.36
80 | CC(C)(C)C1CCC(OC(=O)CCC(=O)Nc2ccc(Cl)cc2Cl)CC1 (stereo not drawn) | -1.76
81 | Cc1ccc(C)c(CN2CCN(c3ccccc3Cl)CC2)c1 | -9.51
82 | Cc1cccc(NC(=O)c2ccc([N+](=O)[O-])cc2C(=O)O)c1 | -1.45
83 | OCC1CCCN(C2CCN(Cc3ccccc3)CC2)C1 (stereo not drawn) | 4.74
84 | CCc1ccc(CNC(=O)CSCc2ccc(F)cc2)cc1 | 2.18
85 | CCOc1cc(-c2noc(N)c2C(=O)OC)cc(OCC)c1OCC | 3.96
86 | COc1cc2c(cc1OC)/C(=C/CN1C(=O)CCC1O)CCS2 (stereo not drawn) | 0.235
87 | C=CCNC(=O)CN(c1cccc(OC)c1)S(=O)(=O)c1ccc(C)cc1 | 5.29
88 | CCOC(=O)c1c(NC(=O)Cc2coc3ccc(OC)cc23)sc(C)c1C | 3.66
89 | CC(C(=O)NCc1ccccc1)N1C(=O)C2CC=C(Cl)CC2C1=O (stereo not drawn) | 5.54
90 | COc1ccccc1C(=O)Nc1cccc(NC(=O)c2ccccc2OC)c1 | -4.43
91 | Cc1ccccc1CC1[Se]C(N)=NC1=O (stereo not drawn) | 1.03
92 | Cc1ccc(-n2nc(C)c3c(C)cc(=O)n(CC(=O)NCCc4ccccc4)c32)cc1 | 3.66
93 | Cc1ccc(CS(=O)(=O)CCC(=O)N2CCc3ccccc3C2)cc1 | 2.18
94 | CCN(Cc1ccccc1)C(=O)Cn1ncc2c3cc(C)ccc3nc-2c1O | 6.5
95 | CC(CNc1cnn(C23CC4CC(CC(C4)C2C(=O)O)C3)c(=O)c1Cl)c1ccccc1 (stereo not drawn) | 1.15
96 | CCCCOc1ccc(C(=O)OC(C)CN(C)C)cc1 (stereo not drawn) | -0.0735
97 | Cn1cccc1/C=N/n1c(S)nnc1-c1ccccc1 | 4.18
98 | COc1cccc(/C=C2\SC(N3CCCC(C)C3)=NC2=O)c1OC (stereo not drawn) | 3.72
99 | Cc1cc(C)c(Cc2c(C)cc(C)c(/C=C(\C#N)C(N)=O)c2C)c(C)c1/C=C(/C#N)C(N)=O | -3.38
